Lines with a small IC50 respond at low doses; where the fit passes the top or lowest dose, that dose stands as a limit. AUC sums up the same curve from the lowest dose to the 256-fold higher top dose; the more sensitive the line, the further below 1. Any top dose called inferred was calculated from the reported fits.
Assays:
Assay in all cases: Viability of human cancer cell lines after 72 h of drug (GDSC screen)
QL-XII-47 = compound: C=CC(=O)N1CCc2ccc(-n3c(=O)ccc4cnc5ccc(-c6cnn(C)c6)cc5c43)cc21 [QL-XII-47]; details: top dose 10.24 µM; top dose inferred
Experimental: (§1)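 Human cancer cell lines in 384-well plates, medium with 10% serum, drug for 72 h over a 256-fold dose range (nine 2-fold or five 4-fold steps up to the top dose). Adherent lines were fixed and stained with the nucleic acid dye Syto60, suspension lines read with resazurin; signal relative to control wells, capped at 0 and 100%. One two-parameter sigmoid per drug and line, fitted in a mixed model over all curves with the slope shared within a line.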

KIN001-266 = compound: CCN1CCC(n2cc(CNc3cc(Cl)c4ncc(C#N)c(Nc5ccc(F)c(Cl)c5)c4c3)nn2)CC1 [KIN001-266]; details: top dose 20 µM; top dose inferred
Experimental: as §1

BAY 61-3606 = compound: COc1ccc(-c2cc3nccn3c(Nc3ncccc3C(N)=O)n2)cc1OC [BAY 61-3606]; details: top dose 8 µM; top dose inferred
Experimental: as §1

CCT007093 = compound: O=C1/C(=C/c2cccs2)CC/C1=C\c1cccs1 [CCT007093]; details: top dose 6.6 µM; top dose inferred
Experimental: as §1

Row | Cell Line | AUC (QL-XII-47) | IC50 (QL-XII-47) | AUC (KIN001-266) | IC50 (KIN001-266) | AUC (BAY 61-3606) | IC50 (BAY 61-3606) | AUC (CCT007093) | IC50 (CCT007093)
1 | H513 (mesothelioma, semi-adherent) | 0.903 | > 10.2 µM | 0.976 | > 20 µM | 0.984 | > 8 µM | 0.985 | > 6.6 µM
2 | NY (osteosarcoma, adherent) | 0.978 | > 10.2 µM | 0.95 | > 20 µM | 0.881 | > 8 µM | 0.985 | > 6.6 µM
3 | LU-165 (small cell lung carcinoma, suspension) | 0.491 | 0.603 µM | 0.966 | > 20 µM | 0.869 | > 8 µM | 0.987 | > 6.6 µM
4 | AMO-1 (haematopoietic neoplasm, suspension) | 0.838 | 5.58 µM | 0.671 | 3.45 µM | 0.878 | 6.14 µM | 0.991 | > 6.6 µM
5 | EPLC-272H (lung squamous cell carcinoma, adherent) | 0.603 | 1.27 µM | 0.864 | > 20 µM | 0.788 | 4 µM | 0.98 | > 6.6 µM
6 | JHH-1 (liver, adherent) | 0.836 | 7.64 µM | 0.798 | 10.5 µM | 0.985 | > 8 µM | 0.973 | > 6.6 µM
7 | HT-144 (melanoma, adherent) | 0.983 | > 10.2 µM | 0.929 | > 20 µM | 0.785 | 3.85 µM | 0.97 | > 6.6 µM
8 | ES3 (Ewing sarcoma, adherent) | 0.715 | 2.7 µM | 0.83 | 13.5 µM | 0.757 | 2.89 µM | 0.973 | > 6.6 µM
9 | EW-7 (Ewing sarcoma, semi-adherent) | 0.637 | 1.45 µM | 0.703 | 4.28 µM | 0.717 | 1.88 µM | 0.964 | > 6.6 µM
10 | SW982 (soft tissue, adherent) | 0.984 | > 10.2 µM | 0.873 | > 20 µM | 0.586 | 0.867 µM | 0.978 | > 6.6 µM
11 | OCUB-M (breast, adherent) | 0.378 | 0.31 µM | 0.854 | 12.6 µM | 0.806 | 3.43 µM | 0.945 | > 6.6 µM
12 | BICR10 (head and neck, adherent) | 0.874 | > 10.2 µM | 0.983 | > 20 µM | 0.956 | > 8 µM | 0.985 | > 6.6 µM
13 | KMRC-1 (kidney, adherent) | 0.981 | > 10.2 µM | 0.814 | 11.7 µM | 0.958 | > 8 µM | 0.971 | > 6.6 µM
14 | HuP-T3 (pancreas, adherent) | 0.764 | 4.54 µM | 0.808 | 13.3 µM | 0.912 | > 8 µM | 0.982 | > 6.6 µM
15 | FADU (head and neck, adherent) | 0.854 | 7.6 µM | 0.899 | > 20 µM | 0.959 | > 8 µM | 0.881 | 6.49 µM
16 | Hep 3B2_1-7 (liver, adherent) | 0.836 | 6.75 µM | 0.967 | > 20 µM | 0.741 | 2.44 µM | 0.987 | > 6.6 µM
17 | PA-TU-8988T (pancreas, adherent) | 0.661 | 1.8 µM | 0.936 | > 20 µM | 0.829 | 4.99 µM | 0.97 | > 6.6 µM
18 | CA46 (Burkitt lymphoma, suspension) | 0.478 | 0.555 µM | 0.804 | 10.9 µM | 0.643 | 1.28 µM | 0.961 | > 6.6 µM
19 | KYSE-70 (oesophagus, adherent) | 0.844 | 8.36 µM | 0.934 | > 20 µM | 0.863 | > 8 µM | 0.968 | > 6.6 µM
20 | H290 (mesothelioma, adherent) | 0.751 | 3.12 µM |  |  | 0.65 | 1.25 µM | 0.989 | > 6.6 µM
21 | DMS-114 (small cell lung carcinoma, adherent) | 0.891 | > 10.2 µM | 0.966 | > 20 µM | 0.95 | > 8 µM | 0.98 | > 6.6 µM
22 | SK-PN-DW (Ewing sarcoma, adherent) | 0.801 | 5.23 µM | 0.828 | 13 µM | 0.835 | 5.53 µM | 0.973 | > 6.6 µM
23 | SU8686 (pancreas, adherent) | 0.749 | 3.68 µM | 0.902 | > 20 µM | 0.951 | > 8 µM | 0.978 | > 6.6 µM
24 | HSC-39 (stomach, suspension) | 0.69 | 2 µM | 0.984 | > 20 µM | 0.991 | > 8 µM | 0.988 | > 6.6 µM
25 | CHL-1 (melanoma, adherent) | 0.624 | 1.38 µM | 0.873 | 17.4 µM | 0.689 | 1.63 µM | 0.983 | > 6.6 µM
26 | NCI-H1694 (small cell lung carcinoma, suspension) | 0.246 | 0.119 µM | 0.899 | > 20 µM | 0.929 | > 8 µM | 0.989 | > 6.6 µM
27 | NCI-H2291 (lung adenocarcinoma, adherent) | 0.969 | > 10.2 µM | 0.971 | > 20 µM | 0.983 | > 8 µM | 0.983 | > 6.6 µM
28 | LU-134-A (small cell lung carcinoma, suspension) | 0.558 | 0.93 µM | 0.91 | > 20 µM | 0.828 | 5.36 µM | 0.986 | > 6.6 µM
29 | 5637 (bladder, adherent) | 0.624 | 1.35 µM | 0.851 | 13.1 µM | 0.896 | > 8 µM | 0.982 | > 6.6 µM

Reference: the supplement of paper PMC4967469
